Among all 220,000 compounds or so, about 5,700 (2.6%) were called active. This list was built around the results that the source calls inconclusive (neither active nor inactive); the mix of calls is not that of the screen. The call rests on the fitted dose curve; in most records, active means well fitted inhibition curve with a large enough effect; inconclusive means small, poorly fitted or top-dose-only effect; inactive means no such curve, though single readings can be large or run the other way. Potencies beside an inconclusive call are fits to weak or partial responses and may not hold up.
Target: Lysine-specific demethylase 5B (Homo sapiens) (UniProt Q9UGL1)
Chain of UniProt Q9UGL1 (Q9UGL1 whole entry, looked up): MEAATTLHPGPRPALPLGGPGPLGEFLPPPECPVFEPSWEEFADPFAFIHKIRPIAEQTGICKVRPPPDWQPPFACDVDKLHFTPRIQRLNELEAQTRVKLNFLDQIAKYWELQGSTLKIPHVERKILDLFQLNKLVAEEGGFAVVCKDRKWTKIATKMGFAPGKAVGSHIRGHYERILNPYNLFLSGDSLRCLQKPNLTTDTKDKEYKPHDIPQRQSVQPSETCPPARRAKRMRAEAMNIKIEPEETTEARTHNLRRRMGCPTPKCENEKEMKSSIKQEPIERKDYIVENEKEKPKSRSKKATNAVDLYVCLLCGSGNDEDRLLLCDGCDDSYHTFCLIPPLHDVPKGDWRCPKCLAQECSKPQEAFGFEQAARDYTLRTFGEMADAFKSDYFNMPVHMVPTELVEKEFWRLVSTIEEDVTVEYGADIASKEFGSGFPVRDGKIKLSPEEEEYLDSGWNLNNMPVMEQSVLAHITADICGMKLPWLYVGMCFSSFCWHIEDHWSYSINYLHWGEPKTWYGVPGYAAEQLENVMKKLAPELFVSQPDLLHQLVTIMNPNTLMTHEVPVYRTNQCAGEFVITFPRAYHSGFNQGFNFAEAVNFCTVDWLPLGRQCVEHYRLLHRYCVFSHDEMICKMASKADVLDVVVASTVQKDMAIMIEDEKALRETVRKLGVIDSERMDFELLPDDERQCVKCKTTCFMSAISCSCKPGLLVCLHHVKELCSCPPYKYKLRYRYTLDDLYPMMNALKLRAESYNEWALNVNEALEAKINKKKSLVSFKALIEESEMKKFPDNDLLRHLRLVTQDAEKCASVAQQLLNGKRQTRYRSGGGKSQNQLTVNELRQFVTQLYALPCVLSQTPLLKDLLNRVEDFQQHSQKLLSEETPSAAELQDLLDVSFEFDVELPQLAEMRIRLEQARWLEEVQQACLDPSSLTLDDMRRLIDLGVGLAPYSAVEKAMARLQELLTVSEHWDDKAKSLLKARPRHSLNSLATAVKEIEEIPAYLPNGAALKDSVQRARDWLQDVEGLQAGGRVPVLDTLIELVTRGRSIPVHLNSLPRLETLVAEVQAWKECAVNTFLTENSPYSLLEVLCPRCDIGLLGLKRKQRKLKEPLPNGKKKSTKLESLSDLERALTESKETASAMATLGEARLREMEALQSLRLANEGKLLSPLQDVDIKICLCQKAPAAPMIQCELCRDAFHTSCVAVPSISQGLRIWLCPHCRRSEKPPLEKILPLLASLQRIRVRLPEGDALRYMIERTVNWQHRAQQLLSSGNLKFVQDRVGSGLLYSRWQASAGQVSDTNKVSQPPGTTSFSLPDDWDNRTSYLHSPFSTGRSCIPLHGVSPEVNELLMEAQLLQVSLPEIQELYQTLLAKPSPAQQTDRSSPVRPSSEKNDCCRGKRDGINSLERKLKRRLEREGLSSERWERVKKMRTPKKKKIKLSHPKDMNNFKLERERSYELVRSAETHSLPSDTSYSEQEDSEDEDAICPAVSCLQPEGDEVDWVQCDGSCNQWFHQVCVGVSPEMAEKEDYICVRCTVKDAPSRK
Assay: Primary screen for KDM5B Histone Demethylases FDH-coupled qHTS; further: nearly all actives have a fitted effect of over 70% in size; on activity change, negative = inhibition: 0% is about no effect
Conditions: FDH-coupled NADH fluorescence (FDH is formaldehyde dehydrogenase); activity change, negative = inhibition: at 57.7 µM (top of the series) unless noted
Outline: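 Here, H3K4me3 peptide (12.5 µM in substrate mix) is demethylated by KDM5BΔAP, 200 nM final, after 10 min compound exposure. Formaldehyde product is coupled through FDH (0.25 U/mL in mix) to NADH fluorescence; 30-min ΔRFU feeds dose-response curves.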
Potency means the concentration at half of the fitted maximal effect; tags describe the fitted curve by direction and shape.

SMILES | Potency | activity change, negative = inhibition
CN(C)C(C(=O)NCc1nnc2n1CCCC2)c1cccc(F)c1 (centres undefined) | inconclusive: 0.631 µM [inhibitor, partial curve, poor fit] | –
CCCC(=O)C1=C(NC(C)C(=O)O)CCCC1=O (centres undefined) | inactive | –
O=C(CCSCCc1ccccn1)Nc1cccc(Cl)c1 | inactive | –
CCOc1cc(NC(=O)c2ccco2)c(OCC)cc1NC(=O)c1ccco1 | inconclusive: 2 µM [inhibitor, full curve, poor fit] | –
COC(=O)C1=C(C)N=C2SC=C(CC(=O)NCc3ccco3)N2C1c1cccc(F)c1 (centres undefined) | inconclusive: 28.2 µM [inhibitor, single point] | –
COc1ccc2c(c1)c1c(c(=O)n(-c3ccc(OC)c(OC)c3)c(=O)n1CC(=O)N1CCCC1)n2C | inconclusive: 10 µM [inhibitor, partial curve, poor fit] | –
CCOc1cc(-c2noc(-c3nnn4c3COC(c3ccc(Cl)cc3)C4)n2)ccc1OC (centres undefined) | inconclusive: 3.55 µM [inhibitor, partial curve, poor fit] | –
Cc1ncccc1C(=O)N[C@@H]1CN(c2ncccn2)C[C@H]1CO | active: 20 µM | –
COc1ccc(-c2ccc(=O)n(CC(=O)N3CCCC3)n2)c(F)c1 | inactive | –
Cc1ccc(Cl)cc1NC(=O)NCc1cccn1Cc1ccc(F)cc1 | inactive | –
Cc1ccc2nc(-c3ccc(NC(=O)c4ccccc4S(C)(=O)=O)cc3)sc2c1 | inconclusive: 25.1 µM [inhibitor, partial curve, poor fit] | –
COc1cc(/C=C(/C#N)C(=O)c2ccccc2)ccc1OC(=O)c1ccc(F)cc1 | inconclusive: 39.8 µM [inhibitor, single point] | –
O=C(N[C@@H]1C[C@H](Cn2cc(C3CC3)nn2)[C@@H](O)[C@H]1O)c1cncnc1 | inconclusive: 22.4 µM [inhibitor, partial curve, poor fit] | –
COc1cccc(OCC(=O)NC2CC(=O)N(c3ccc4c(c3)OCCO4)C2)c1 (centres undefined) | inconclusive: 31.6 µM [inhibitor, single point] | –
N#Cc1c(Cl)nc(N/N=C/c2ccc([N+](=O)[O-])cc2)c(Cl)c1Cl | inactive | –
CCN1c2cc(C(=O)NCc3cccc(Cl)c3)ccc2C(=O)N2CCCCCC21 (centres undefined) | inconclusive: 22.4 µM [inhibitor, partial curve, poor fit] | –
COC(=O)c1ccccc1NC(=O)c1cc(C)nc2c1c(C)nn2-c1ccc(C)cc1 | inactive | –
CSc1cccc(NC(=O)/C=C/c2cccs2)c1 | inactive | –
O=C([C@H](O)c1ccccc1)N1CCc2onc(-c3cccc4ccccc34)c2C1 | inconclusive: 22.4 µM [inhibitor, partial curve, poor fit] | –
CN(C)CCNC(=O)c1ccc(Cn2c(SCc3ccc(F)cc3)nc3cccnc32)cc1 | inconclusive: 25.1 µM [inhibitor, partial curve, poor fit] | –
Oc1ccc(-c2nc3ccccc3s2)c(O)c1 | inconclusive: 35.5 µM [inhibitor, single point] | –
COc1ccc(CNC(=O)C[C@@H]2C[C@H]3O[C@H](CNC4CCCC4)[C@@H](O)[C@H]3O2)cc1 | inactive | –

SMILES | Potency | activity change, negative = inhibition
CCCc1ccc(-c2cc(C(=O)NCc3cnn(C)c3)c3ccccc3n2)cc1 | inconclusive: 25.1 µM [inhibitor, partial curve, poor fit] | –
COc1ccc(C(CNC(=O)c2ccco2)N2CCCC2)cc1 (centres undefined) | inconclusive: 31.6 µM [inhibitor, partial curve, poor fit] | –
N#C/C(=C\c1c(N2CCOCC2)nc2ccccn2c1=O)C(=O)NC1CCS(=O)(=O)C1 (centres undefined) | inconclusive: 35.5 µM [inhibitor, partial curve, poor fit] | –
Cc1csc2ncc(C(=O)NCCC(c3ccccc3)c3ccccc3)c(=O)n12 | inconclusive: 35.5 µM [inhibitor, partial curve, poor fit] | –
O=C(NC[C@H]1O[C@@H](CC(=O)N2CCOCC2)[C@H](O)[C@@H]1O)Nc1ccc(F)cc1F | inactive | –
O=C(c1cccs1)c1cn(CCOc2ccc(Cl)cc2)c2ccccc12 | inconclusive: 2.51 µM [inhibitor, partial curve, poor fit] | –
COc1ccc(-c2c(C)c3ccc(O)c(C)c3oc2=O)cc1 | inconclusive: 7.08 µM [inhibitor, full curve, poor fit] | –
COP(=O)(OC)c1nc(C(c2ccccc2)c2ccccc2)oc1NCc1ccco1 | inactive | –
CC(=O)N1N=C(c2c(-c3ccccc3)c3cc(Cl)ccc3n(C)c2=O)CC1c1ccco1 (centres undefined) | inconclusive: 22.4 µM [inhibitor, single point] | –
Cc1cc(C)c2nc(-c3ccccc3C)cc(C(=O)O)c2c1 | inconclusive: 39.8 µM [inhibitor, single point] | –
CCc1ccc2oc(-c3ccc(CN)cc3)nc2c1 | inconclusive: 15.8 µM [inhibitor, partial curve, poor fit] | –
COc1cc(/C=C(/C#N)C(=O)c2ccccc2C)cc(Cl)c1O | inconclusive: 28.2 µM [inhibitor, partial curve, poor fit] | –
CCC(=O)Nc1ccc2nc(C3CC3)n(Cc3ccc(C(C)(C)C)cc3)c(=O)c2c1 | inconclusive: 31.6 µM [inhibitor, single point] | –
Cc1csc2nc(COC(=O)c3cccc(NC(=O)c4cccc(Cl)c4)c3)cc(=O)n12 | inconclusive: 31.6 µM [inhibitor, single point] | –
Cc1cc(-c2ccccc2)nc2oc3c(c12)NC(=O)CN(c1ccccc1)C3=O | inconclusive: 28.2 µM [inhibitor, partial curve, poor fit] | –
COCCNc1oc(-c2ccccc2F)nc1S(=O)(=O)c1ccc2c(c1)OCCO2 | inconclusive: 28.2 µM [inhibitor, single point] | –
COc1ccc(C(=O)Nc2cccc(-c3cn4ccsc4n3)c2)c(OC)c1 | inconclusive: 35.5 µM [inhibitor, partial curve, poor fit] | –
CCNC(=O)N1CC[C@@H](CC(=O)O)[C@@H](CC2=NCCc3ccc(C(C)(C)C)cc32)C1 | inconclusive: 39.8 µM [inhibitor, partial curve, poor fit] | –
COc1ccc(-c2nc(NCCN(C)C3CCCCC3)c3ccccc3n2)cc1 | inconclusive: 25.1 µM [inhibitor, partial curve, poor fit] | –
CSc1ccccc1C(=O)Nc1ccccc1-c1ccccc1 | inactive | –
COc1ccc2c(c1)NC(c1ccc(N(C)C)cc1)c1cccn1-2 (centres undefined) | inconclusive: 14.1 µM [inhibitor, partial curve, poor fit] | –
COc1ccccc1CNC(=O)CCC(=O)N1CC(C)Sc2ccccc21 (centres undefined) | inconclusive: 3.98 µM [inhibitor, partial curve, poor fit] | –

SMILES | Potency | activity change, negative = inhibition
O=c1n(-c2ccc(C(F)(F)F)cc2)nc2n1CCN(Cc1ccc(F)cc1)C2 | inconclusive: 6.31 µM [inhibitor, single point] | –
O=C(CNc1cccc(S(=O)(=O)N2CCCCCC2)c1)N1CCN(C(=O)c2cccs2)CC1 | inactive | –
O=C1N(Cc2cccc(F)c2F)CCCC12CCN(c1nc3ccccc3o1)C2 (centres undefined) | inactive | –
CC(=O)N1CC2(CCCN2Cc2cccc(C(N)=O)c2)Cc2ccccc21 (centres undefined) | inconclusive: 44.7 µM [inhibitor, partial curve, poor fit] | –
CCOC(=O)C(C#N)C(c1ccco1)c1ccccc1OC (centres undefined) | inactive | –
C#CC1(O)CC(C)(C)NC(C)(C)C1 | inactive | –
O=C(COc1ccc(Cl)cc1)N(Cc1ccco1)Cc1ccco1 | inconclusive: 15.8 µM [inhibitor, partial curve, poor fit] | –
COCCn1cnc2ccc(-c3ccc(F)cc3OC)nc2c1=O | inconclusive: 39.8 µM [inhibitor, partial curve, poor fit] | –
CN(C)CCNC(=O)c1ccc(-n2c(-c3ccccc3)cc3c2CCCCC3)cc1 | – | inconclusive: -33.4% [inhibitor]
CC(C)(C)C(=O)N1CC[C@@H](CC(=O)O)[C@@H](CCN2CCOCC2)C1 | inconclusive: 28.2 µM [inhibitor, partial curve] | –
CCOc1cc(C2CC(=O)N3CN(c4ccccc4)CSC3=C2C#N)cc(Br)c1O (centres undefined) | inconclusive: 8.91 µM [inhibitor, partial curve, poor fit] | –
CC(C)Oc1ccc(CN2CCc3nc(Nc4ccc5c(c4)OCCO5)ncc3C2)cc1 | inconclusive: 28.2 µM [inhibitor, partial curve, poor fit] | –
O=C(O)c1ccc2nc(CCl)[nH]c2c1 | inactive | –
NC(=O)Nc1cccc([N+](=O)[O-])c1 | inactive | –
COCC(=O)NC[C@H]1CCN(Cc2ccccn2)C[C@H]1N(C)C | inconclusive: 15.8 µM [inhibitor, partial curve, poor fit] | –
COC(=O)c1ccc(NC(=O)CN2CCCN(Cc3ccc(Cl)cc3)S2(=O)=O)cc1 | inconclusive: 1.41 µM [inhibitor, full curve, poor fit] | –
O=C(c1ccc2nc(-c3ccccc3)cn2c1)N1CCOC(C(F)(F)F)C1 (centres undefined) | active: 31.6 µM | –
Cc1ccc(-c2nc3cc(NC(=O)c4cc5ccccc5o4)ccc3o2)cc1Cl | – | inactive: 9.41% [at 11.5 µM]
O=C(c1ccoc1)N1CCC2(CC1)CN(C1CCC1)CC2CO (centres undefined) | inconclusive: 20 µM [inhibitor, partial curve, poor fit] | –
Cc1ccc(CN(Cc2ccco2)C(=O)c2ccc(Cl)cc2Cl)cc1 | inconclusive: 2.82 µM [inhibitor, partial curve, poor fit] | –
